In all, about 44,000 compounds went through this assay and about 340 (0.77%) were called active. Another 5% or so got no clear call; they are omitted. Calls follow the shape of the dose curve; as a rule, active = well fitted inhibition curve with a large enough effect; inconclusive = small, poorly fitted or top-dose-only effect; inactive = flat fitted curve, though single readings scatter. This is one part of the list.
assay: Acumen qHTS Assay for Inhibitors of the mTORC1 Signaling Pathway in MEF (Tsc2-/-, p53-/-) Cells: Sytravon; details: phospho-rpS6 immunofluorescence/PI, 24 h; series mostly up to 38.3 µM; activity change, negative = inhibition: at the top concentration;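 also: plate controls were DMSO for no effect and rapamycin for full effect; nearly all actives have a fitted effect of over 50% in size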
Outline: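 Compounds act on Tsc2-/-, p53-/- fibroblasts carrying an empty vector for 24 h before fixation and dual staining for phospho-S6 and DNA (propidium iodide). Values are percentages of cells above a rapamycin-defined pS6/PI threshold.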

Activity change, negative = inhibition, inactive:
Nc1nn(-c2ccccc2)nc1C(=O)OCc1ccccc1Br 0.519%
Cc1ccc(NC(=O)c2cc(CN3CCOCC3)on2)cc1Cl 0.0331%
CC1=C(C(=O)Nc2ccc(C)cc2Cl)C2(CCCCC2)OC1=O -6.53%
COc1ccc2c(c1)CCc1c(C(=O)Nc3c(C)nn(Cc4c(Cl)cccc4Cl)c3C)noc1-2 2.3%
CCOC(=O)c1c(C)[nH]c(C)c1S(=O)(=O)NCC(=O)Nc1ccc(CC)cc1 9.2%
CCc1ccccc1NC(=O)c1cc2sc(Cl)cc2n1CC -0.7%
O=C(c1cccs1)c1cn(CCOc2ccc(F)cc2)c2ccccc12 1.07%
O=C(Cn1cnc2onc(-c3ccc(F)cc3)c2c1=O)N1CCN(c2ccccc2F)CC1 1.45%
O=C(O)Cc1sc(Nc2ccc(C(=O)O)cc2)nc1-c1ccccc1 -0.963%
CCOC(=O)c1noc2ncn(CC(=O)Nc3cc(Cl)ccc3OC)c(=O)c12 1.68%
CCOc1ccccc1CNC(=O)CCCN1C(=O)COc2ccc(C)cc21 -0.739%
COc1ccc(-c2cn(-c3ccc(C)cc3)c(S(=O)(=O)CC(=O)Nc3ccccc3)n2)cc1 1.38%
Cc1cc(Br)ccc1NC(=O)c1coc(=O)c2ccccc12 -0.134%
Cc1oc2ncn(CC(C)C)c(=O)c2c1C(=O)Nc1cccc(C(F)(F)F)c1 0.841%
O=C(Nc1ccc(Cl)c(Cl)c1)c1cc(S(=O)(=O)N2CCN(c3cccc(Cl)c3)CC2)ccc1F 1.55%
CC(C)c1ccccc1NC(=O)CSc1nnc(COc2ccccc2)o1 4.06%
Cc1ccc(CNC(=O)CN(C)S(=O)(=O)c2ccc(Br)s2)cc1 -2.07%
CCn1c(=O)c2sccc2n2c(CCC(=O)N3CCN(c4ccccc4OC)CC3)nnc12 5.96%
O=C(NCCCCc1ccccc1)c1nn(-c2ccccc2F)nc1CO -2.03%
Cc1nn(CCC(=O)NCc2cccc(Br)c2)c(=O)c2nn(-c3ccccc3)c(C)c12 -1.24%
CC(C)OCCCn1c(SCC(N)=O)nc2c(sc3ccccc32)c1=O 2.72%
COc1ccc(-c2nnc(SCC(=O)Nc3ccccc3C)o2)cc1OC 3.97%
CCCOc1ccc(C(=O)NCC(c2ccc(OC)cc2)N2CCCCC2)cc1 (configuration not stated) -12.4%
CC(C)NC(=O)Cn1ccc2cc(S(=O)(=O)N3CCCCCC3)ccc21 -2.42%
CC(NC(=O)c1ccc(CSc2nc3ccncc3n2Cc2ccc(F)cc2)cc1)c1ccccc1 (configuration not stated) 1.11%
Cc1cccc(OCCCSc2nc(-c3ccc(C(C)(C)C)cc3)nc3cc(=O)[nH]n23)c1C -1.78%
Cc1cccc(-n2c(=O)c3c(c4cc(C)ccc4n3C)n(CC(=O)Nc3ccccc3Cl)c2=O)c1 2.47%
CCCCCn1c(=O)[nH]c2cc(C(=O)NCc3ccc(F)cc3)ccc2c1=O -1.81%
COCCNC(=O)c1ccc2c(c1)N(Cc1ccc(C(F)(F)F)cc1)C(=O)c1ccccc1S2 0.242%
CC(C)c1ccc(S(=O)(=O)c2nnn3c2nc(N2CCOCC2)c2sccc23)cc1 -4.2%
CC1CCN(S(=O)(=O)c2ccc3c(ccn3CC(=O)NCc3ccc(N(C)C)cc3)c2)CC1 -4.81%
COc1ccc(Cl)cc1NC(=O)Cn1nc(C(F)(F)F)c2c1CCC2 -13.4%
COc1ccc(CCC(=O)NCc2nc3cccnc3n2Cc2cccc(OC)c2)cc1 -0.758%
CCC1CN(C(=O)N2CCC(C(=O)N3CCN(c4ccc(F)cc4)CC3)CC2)c2ccccc2O1 (configuration not stated) 3.88%
CCCCc1nn2c(=O)cc(COC(=O)C(C)Oc3ccccc3)nc2s1 (configuration not stated) 0%
Cc1c(C(=O)Nc2ccccc2Br)oc2ccc(S(=O)(=O)N3CCOCC3)cc12 10.3%
Cc1ccc(NC(=O)C2CCN(C(=O)c3cnn(-c4ccccc4)c3-n3cccc3)CC2)cc1 -0.37%
CCOC(=O)N1CCc2c(sc3c2c(=O)n(-c2ccc(CC)cc2)c(=O)n3CC(=O)c2ccccc2)C1 -1.18%
COc1ccc2c(c1)CC(NC(=O)Nc1ccc(NC(C)=O)cc1)CO2 (configuration not stated) 0%
CC(C)CNC(=O)c1c(-c2ccccc2)c(-c2ccccc2)nn(C)c1=O -11.9%
Cc1ccccc1Cn1c(=O)n(CCCCC(=O)NCc2ccccc2Cl)c(=O)c2ccccc21 -5.54%
O=C(NCc1ccccc1Cl)c1ccc(NC(=O)c2nsc3ccccc23)cc1 5.22%
COc1ccccc1CNC(=O)C1CCN(Cc2cc3ccccc3n2Cc2cccc(C)c2)CC1 1.36%
O=C(CSc1nnc(-c2ccncc2)n1-c1ccccc1)Nc1ccc(Br)cc1 -4.74%
CCOc1ccc(NC(=O)C2CCN(S(=O)(=O)c3ccc4c(c3)oc(=O)n4C)CC2)cc1 -4.75%
CCOc1cc(C)c(C(C)C)cc1S(=O)(=O)n1ccnc1CC -26.8%
CCOc1ccc2nc(N3CCC(C(=O)Nc4ccc(Br)cc4F)CC3)sc2c1 -7.6%
CCCNC(=O)c1c(NC(=O)c2ccc(C)cc2)sc2c1CCCCC2 -12%
CC(=O)N1CCOc2cc(S(=O)(=O)Nc3cc(C(F)(F)F)ccc3Cl)c(C)cc21 -10.5%
COc1ccc2c(c1)c1c(c(=O)n(Cc3ccccc3)c(=O)n1Cc1ccccc1)n2C 0.103%
CCSc1ncc(Cl)c(C(=O)N(Cc2ccc(C(C)(C)C)cc2)C2CCS(=O)(=O)C2)n1 (configuration not stated) -16.4%
CCOC(=O)c1c(C)oc2nc(C)nc(NCCCN3CCN(c4cc(Cl)ccc4C)CC3)c12 6.72%
CCOC(=O)c1cccc(NC(=O)Nc2ccc3c(c2)N(C)C(=O)c2ccccc2S3)c1 -11.1%
Cc1ccc(-c2noc(-c3nnn(CC(=O)Nc4cccc(C(F)(F)F)c4)c3N)n2)cc1 -0.473%
O=C(NCCCN1CCN(c2ccccc2F)CC1)C1COc2ccccc2C1 (configuration not stated) -0.568%
Cc1ccc(C(=O)NCC(=O)OCc2cc(=O)n3nc(C4CC4)sc3n2)cc1 -7.36%
O=C(O)c1cccnc1SCc1cccc(Cl)c1 6.3%
COc1ccc(S(=O)(=O)Cc2ccc(C(=O)N3CCN(c4cc(C)ccc4C)CC3)o2)cc1 -2.2%
O=C(Nc1cccc(-c2nc3ccccc3[nH]2)c1)c1c(F)cccc1F -15.5%
CCc1ccc(NCc2cc3cc4c(cc3n(CC(=O)Nc3ccc(OC)cc3)c2=O)OCO4)cc1 0.695%
Cn1c(SCC(=O)N2CCOCC2)ncc(C(=O)Nc2ccc(F)cc2)c1=O 0.569%
CCc1ccc(C2c3c(-c4cc(C)ccc4O)n[nH]c3C(=O)N2CCO)cc1 (configuration not stated) 2.49%
